# From ChEMBL document CHEMBL4888484, “Replenishing the malaria drug discovery pipeline: Screening and hit evaluation of the MMV Hit Generation Library 1 (HGL1) against asexual blood stage Plasmodium falciparum ,using a nano luciferase reporter read-out” (2022)
# Among all 150,000 compounds or so, about 540 (0.36%) showed an effect of 50% or more. This is one part of the list.
# Test system: Plasmodium falciparum
# Assay: Primary screen in NF54 nanoGlo assay, in single point, at 2uM, 72h; a lower Z score goes with more inhibition
# Type: functional, Erythrocyte
# Conditions: timepoint 72 hour
SMILES,% Inhibition [%],Z score
COc1ccc(CN2CC(=O)N(c3ccc(OC)c(Cl)c3)C3CS(=O)(=O)CC32)cc1 (stereo unspecified),-5,0.67
Cc1ccc(C2CC2C(=O)N2CCC3(CC2)NC(=O)NC3=O)cc1C (stereo unspecified),4,-0.62
COCc1nnc(-c2cc3ccccc3cc2O)o1,12,-1.43
O=C(O)[C@H]1CN(C(=O)c2ccc3c(c2)OCO3)C[C@@H]1c1ccc(F)cc1,-3,0.43
COc1c(C)cc([C@H]2CCc3nc(C(=O)Nc4ccc(C)cc4)cn3C2)cc1C,0,-0.02
O=C(c1cc2ccccc2c(CN2CCCc3cc(Cl)ccc32)c1O)N1CCOCC1,-5,0.94
N#Cc1c(NC(=O)C2CCN(S(=O)(=O)c3ccc(Cl)cc3)CC2)sc2c1CCC2,4,-0.59
COC(=O)c1ccc(O)c(NC(=O)C(F)(F)F)c1,3,-0.44
COCCN(CC1CN(CC(O)Cc2ccccc2)CCO1)C(=O)c1ccccc1 (stereo unspecified),-5,0.45
CC(C)=Cc1c(-c2ccccc2)ncn1C[C@H]1CNCCO1,-13,1.23
CN(Cc1ccc(F)cc1C(F)(F)F)Cc1ncnn1C,0,-0.04
COC(C)c1nc(CN(C)C(=O)N2C(C)CCCC2C)cs1 (stereo unspecified),2,-0.25
Cc1ccncc1C(=O)NC[C@H]1CCCCS1(=O)=O,-7,1.07
O=C1NC2(CCOCC2)Nc2ccccc21,-10,1.53
CCc1cnccc1C(=O)OCc1ccc2[nH]nnc2c1,9,-1.08
COCCNC(=O)N(C)Cc1nccn1CC(F)(F)F,-10,0.93
Cc1cc(C(=O)N2CCN(Cc3cc4ccccc4o3)CC2)ncn1,-15,1.37
CCc1cc(C(=O)Nc2ccc(Cl)cc2F)nc2ccnn12,6,-0.98
O=S(=O)(Cc1csc(N2CCOCC2)n1)c1ccccc1,-7,1.29
CO[C@H]1CC[C@@]2(OC)CCN(Cc3cnc(-c4cccc(C)c4)nc3)[C@H]2C1,2,-0.29
CCCc1ccc(CN2CCn3nc(C(=O)N4CCN(C)CC4)cc3C2)o1,-6,0.85

SMILES,% Inhibition [%],Z score
Cc1c(-c2nc3c([nH]2)c(-c2cccnc2)nn3C)cnn1-c1ccccc1,12,-1.61
O=C(Cc1csc(N2CCCNC2=O)n1)Oc1ccc(Cl)cc1Cl,-1,0.17
O=C(NCc1ccccc1)c1ccccc1N1C(=O)[C@@H]2Cc3c([nH]c4ccccc34)C(c3cccc(Cl)c3)N2C1=O (stereo partly specified),10,-0.93
CC(C)N(C)S(=O)(=O)c1ccccc1,1,-0.12
C=CCN1C(=O)C(C(=O)N(Cc2ccccc2)Cc2ccccc2)[C@H]2C[C@@]1(C)Oc1ccccc12 (stereo partly specified),2,-0.3
FC(F)(F)c1nnc2ccc(N(CC3CCCCC3)C3CC3)nn12,1,-0.12
Cc1cccc(NC(=O)c2ccc(=O)n(CCC(=O)N3CCOCC3)n2)c1,-13,1.76
Cc1cc(C)nc(NCCS(=O)(=O)CC(C)C)n1,-6,0.96
CC(C)c1nc(CNS(=O)(=O)c2cccs2)n(-c2ccccn2)n1,-1,0.1
Cc1nn(C)c(Cl)c1CN1CCc2[nH]cnc2[C@H]1c1cccc(O)c1,-13,2.41
COC[C@@H](O)CN(Cc1ccco1)Cc1c(C)nn(-c2ccccc2)c1Oc1ccc(C)cc1,17,-1.88
CN(C(=O)CCOC1CCOCC1)c1cc(Cl)cc(Cl)c1,-18,3.51
COCCc1noc([C@@H]2CCCN2Cc2ccc3cc(NC(C)=O)ccc3n2)n1,-11,2.13
CCCn1nccc1-c1ccc(NC2CC2)nn1,-18,2.3
Cc1ccc(Nc2ccc3nc(-c4ccc(S(=O)(=O)Nc5ccc(C)cc5)cc4)nc4c3c2C(=O)c2ccccc2-4)cc1,-4,0.42
O=C(Cc1ccc(S(=O)(=O)Nc2ccccc2)s1)N1CCCC1,-8,1.6
COc1ccc(-c2n[nH]c(C)c2CC(=O)NCC2(c3ccc(OC)cc3)CCOCC2)cc1,-3,0.38
CCN(CC)CCNC(=O)c1c(N2CCCC2=O)c2cc(F)ccc2n1CC,-1,0.13
CC[C@H](Nc1nc(C2CCCC2)nc2c1CNC2)c1cc(C)ccn1,-19,2.41
CO[C@@H](C)C(=O)N1CCC2(CCC(=O)N(CCc3ccncc3)C2)CC1,3,-0.28
COCc1nc(-c2ccc(N3CCCC3=O)cc2)cs1,-7,0.86

SMILES,% Inhibition [%],Z score
CO[C@H]1CCN(CC(=O)NCCc2ccc(Cl)cc2)C1,-11,1.82
Cc1nc(-c2ccc(C(=O)NCC3CCOCC3)cc2)c2ccsc2n1,-6,0.58
CCc1ccc(NC(=O)Cn2c(=O)n(Cc3ccccc3F)c(=O)c3sccc32)cc1,7,-1.02
O=C(COc1ccc(F)cc1)NC1CC2CCC1C2 (stereo unspecified),-17,2.5
O=C(NCCCc1ccccc1)N1CC(Oc2nccs2)C1,-17,2.13
Cc1nc2cc(C(=O)N3CCc4ccccc43)ccc2n1-c1ccc(Br)cc1,3,-0.37
CC(C)c1ccc(OC[C@H]2c3ccsc3CCN2C(=O)CN(C(=O)Nc2cccc(Cl)c2)C(C)C)cc1,-11,1.02
Cc1ccc(N2CCN(Cc3ccc(C(=O)NCc4ccccc4F)cc3)CC2)cc1,-14,1.29
O=C(NC1CC1)[C@@H]1CN(Cc2ccc3cccc(Cl)c3n2)CCN1,-28,2.84
Cc1cc(C)c(NC(=O)CN(C)C(=O)NCCCOC(C)C)c(C)c1,-1,0.11
Cc1[nH]c2c(-c3nc([C@H]4CCOC4)no3)cccc2c1C,-12,1.59
COc1ccccc1NC(=O)[C@@H](C)C1CCN(C(=O)Nc2ccc(Cl)cc2)CC1,-10,1.33
COc1ccc(C2=C[C@@H](c3ccccc3)n3nnnc3N2)cc1,9,-1.16
COCCN(C)Cc1ccc(CC2CCN(Cc3cnn(C)c3C)CC2)cc1,-11,2.06
Cc1noc2ncnc(N3CCN(C)C[C@H]3c3ccccc3)c12,-12,1.21
O=C1C[C@H](N2CCN(S(=O)(=O)c3ccc(F)cc3)CC2)C(=O)N1Cc1ccc(Cl)cc1,-1,0.09
CCOc1ccccc1C(=O)Nc1c(C)nc(Nc2ccc(OC)cc2)nc1Nc1ccc(OC)cc1,-13,2.51
CN(C)c1ccc(NC(=O)[C@@]2(C)CC2(Cl)Cl)cn1,1,-0.19
CC1(c2nccc(NC(=O)c3ccc(Cl)o3)n2)CC1,-15,1.69
O=C(c1cc2c(s1)CCC2)N1CCC[C@@]2(CCS(=O)(=O)C2)C1,-5,0.68
Cc1cc(CNCc2cccnc2C)n(C)n1,-1,0.09

SMILES,% Inhibition [%],Z score
CN(Cc1c[nH]c2nccnc12)[C@H]1CS(=O)(=O)c2ccc(Cl)cc21,2,-0.38
Cc1cc(C)nc(-n2nc(-c3ccc(Cl)cc3)c3c2NC(=O)C[C@@H]3c2cccc(O)c2)n1,-1,0.09
O=C(Nc1cc(F)ccc1OC(F)F)c1cnc2n1CCOC2,-7,0.69
C[C@@H](CCNC(=O)c1cccn1-c1cccnc1)N1CCCCCC1,-2,0.16
O=C(NCCc1ccco1)NC1CCCC1,-1,0.14
CC(=O)C1=C(c2ccccc2)S/C(=C2/C(=S)C(C)(C)Nc3cc(C)ccc32)S1,-41,4.8
CC1CN(CC(O)CC(F)(F)F)CCN1C(=O)OC(C)(C)C (stereo unspecified),8,-1.13
Clc1c[nH]c2nc(-c3ccccn3)nc-2c1,-9,1.15
CC(C)(CNC(=O)[C@@H]1CN(S(=O)(=O)c2ccccc2Cl)CCO1)Oc1ccccc1,-7,0.82
C=CCN(CCOc1ccc(C#N)cc1)[C@H]1CCS(=O)(=O)C1,-6,0.58
Cc1ncc2c(c1-c1nn[nH]n1)-c1ccccc1CC2,-12,1.52
Cc1ccc(-c2nc3cc(F)ccc3cc2CN2CCC[C@H]2C(N)=O)cc1,-13,1.68
Cc1nc(C(=O)NCCCN2CCOCC2)c(C)s1,10,-1.34
O=S(=O)(NCCc1ccncc1)C1CC1,-10,1.48
C#CCN1CCCC[C@H]1C(=O)NCc1nc(-c2ccco2)n[nH]1,-3,0.53
Cc1nocc1NC(=O)N1CCC[C@]1(C)Cc1ccc(Cl)s1,20,-2.49
O=C(c1cn(CC(=O)N2CCCC2)c2ccccc12)C1CCCCC1,24,-2.71
Cc1cc(CN2CC[C@H](CNC(=O)C3CCCCCC3)C2)[nH]n1,-3,0.65
O=C(N[C@H]1COC[C@H]1n1ccnn1)N1CCC2(C=Cc3ccccc3O2)CC1,0,-0.06
C[C@H]1COCCN1Cc1nc2cc(Br)cnc2[nH]1,-14,2.92
